Whole data set: some 81,000 sequences, median “one-hybrid fitness for binding parS DNA” near -0.17, cut for the highest 2% near 0.51. This is one part of the list.
B1: Caulobacter ParB omega fusion; a variant is named by its letters at X, in order, B8GW30 (parent)
chain: MESVVVGEPGMSEGRRGLGRGLSALLGEVDAAPAQAPGEQLGGSREAPIEILQRNPDQPRRTFREEDLEDLSNSIREKGVLQPILVRPSPDTAGEYQIVAGERAWRAAQRAGLKTVPIMVRELDDLAVLEIGIIENVQRADLNVLEEALSYKVLMEKFERTQENIAQTIGKSXSHVANXMRLLXLPDEVQSYLVSGELTAXHARAIAAAADPVALAKQIIEGGLSVRETEALARKAPNLSAGKSKGGRPPRVKDTDTQALESDLSSVLGLDVSIDHRGSTGTLTITYATLEQLDDLCNRLTRGI

Variants of: B1
Assay: one-hybrid fitness for binding parS DNA (scaled: cognate 1, non-cognate 0); higher = stronger binding
Settings: with parS DNA site
Procedure, shortened: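 Caulobacter ParB libraries with four specificity codons randomised were screened by bacterial one-hybrid selection in the E. coli USO strain, using a HIS3 reporter whose site lies 19 bp from the promoter. Selection ran for 48 hours at 37°C on M9 lacking histidine, with 0.1 mM IPTG and 5 mM 3-AT. Plasmids were Illumina-sequenced before and after selection, three replicate libraries were pooled, and variants with under 10 reads were dropped. Fitness is the log change in each variant's read ratio to wild type, rescaled against the cognate and non-cognate sites.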

| Variant | one-hybrid fitness for binding parS DNA |
| --- | --- |
| MYAG | ≤ 0.2 |
| RVPM | ≤ 0.2 |
| QHTP | ≤ 0.2 |
| LLIS | ≤ 0.2 |
| LCLC | ≤ 0.2 |
| HVLE | ≤ 0.2 |
| PSIT | ≤ 0.2 |
| TDSM | ≤ 0.2 |
| MIKC | ≤ 0.2 |
| TFQN | ≤ 0.2 |
| AVGS | ≤ 0.2 |
| RQFT | 0.759 |
| GMYG | ≤ 0.2 |
| PKTN | ≤ 0.2 |
| VEAN | ≤ 0.2 |
| RTEW | ≤ 0.2 |
| GNTS | ≤ 0.2 |
| RGGH | ≤ 0.2 |
| DDLC | ≤ 0.2 |
| HPGN | ≤ 0.2 |
| GCAM | ≤ 0.2 |
| VSRR | ≤ 0.2 |
| RDHD | ≤ 0.2 |
| QDII | ≤ 0.2 |
| RCQF | ≤ 0.2 |
| TRFS | ≤ 0.2 |

| Variant | one-hybrid fitness for binding parS DNA |
| --- | --- |
| WINA | ≤ 0.2 |
| LPEK | ≤ 0.2 |
| ALLD | ≤ 0.2 |
| PAVE | ≤ 0.2 |
| DPLV | ≤ 0.2 |
| QRFS | ≤ 0.2 |
| CERT | ≤ 0.2 |
| LYRF | ≤ 0.2 |
| RRRS | 0.67 |
| PNKE | ≤ 0.2 |
| SQAR | ≤ 0.2 |
| WRWI | ≤ 0.2 |
| HYTH | ≤ 0.2 |
| KVPK | ≤ 0.2 |
| PRGY | ≤ 0.2 |
| SCPW | ≤ 0.2 |
| RWKC | 0.896 |
| QQES | ≤ 0.2 |
| TYRG | ≤ 0.2 |
| FKGG | ≤ 0.2 |
| NFSV | ≤ 0.2 |
| RWGF | ≤ 0.2 |
| IFNM | ≤ 0.2 |
| SCSV | ≤ 0.2 |
| RTER | ≤ 0.2 |
| ARKA | ≤ 0.2 |

| Variant | one-hybrid fitness for binding parS DNA |
| --- | --- |
| PPQR | ≤ 0.2 |
| GMLC | ≤ 0.2 |
| AAIH | ≤ 0.2 |
| PLFI | ≤ 0.2 |
| ALSS | ≤ 0.2 |
| THAP | ≤ 0.2 |
| YNPM | ≤ 0.2 |
| HPYE | ≤ 0.2 |
| LLIC | ≤ 0.2 |
| YVSL | ≤ 0.2 |
| AHNI | ≤ 0.2 |
| QSRS | ≤ 0.2 |
| SGHY | ≤ 0.2 |
| THAG | ≤ 0.2 |
| WCNF | ≤ 0.2 |
| LDCA | ≤ 0.2 |
| HCST | ≤ 0.2 |
| SGEM | ≤ 0.2 |
| CCMC | ≤ 0.2 |
| VMKT | ≤ 0.2 |
| SLQW | ≤ 0.2 |
| AHGG | ≤ 0.2 |
| NANG | ≤ 0.2 |
| YESW | ≤ 0.2 |
| PGAI | ≤ 0.2 |
| QHPS | ≤ 0.2 |

| Variant | one-hybrid fitness for binding parS DNA |
| --- | --- |
| RDRN | ≤ 0.2 |
| IYNR | ≤ 0.2 |
| VPMN | ≤ 0.2 |
| SARL | ≤ 0.2 |
| NMHG | ≤ 0.2 |
| HRYM | ≤ 0.2 |
| KDTY | ≤ 0.2 |
| WQAG | ≤ 0.2 |
| RCKP | ≤ 0.2 |
| MLTM | ≤ 0.2 |
| TPGS | ≤ 0.2 |
| YLFC | ≤ 0.2 |
| QGPE | ≤ 0.2 |
| MNAG | ≤ 0.2 |
| MDDG | ≤ 0.2 |
| LWKC | ≤ 0.2 |
| TYDK | ≤ 0.2 |
| MIRR | ≤ 0.2 |
| GTQP | ≤ 0.2 |
| HKKH | ≤ 0.2 |
| NQRV | ≤ 0.2 |
| SQHF | ≤ 0.2 |
| VVTC | ≤ 0.2 |
| RGKA | 0.475 |
| CCVR | ≤ 0.2 |
| SLPW | ≤ 0.2 |

| Variant | one-hybrid fitness for binding parS DNA |
| --- | --- |
| AYVM | ≤ 0.2 |
| PVAH | ≤ 0.2 |
| CKAL | ≤ 0.2 |
| NHLI | ≤ 0.2 |
| LVAS | ≤ 0.2 |
| THFT | ≤ 0.2 |
| APLT | ≤ 0.2 |
| VWAG | ≤ 0.2 |
| RWDT | 0.512 |
| PGRF | ≤ 0.2 |
| TIRA | ≤ 0.2 |
| VPPD | ≤ 0.2 |
| RNQS | 0.921 |
| NQMG | ≤ 0.2 |
| RVCP | ≤ 0.2 |
| YQMY | ≤ 0.2 |
| EAYG | ≤ 0.2 |
| RYWI | ≤ 0.2 |
| KHRT | ≤ 0.2 |
| QYES | ≤ 0.2 |
| PQHS | ≤ 0.2 |
| APQI | ≤ 0.2 |
| KLMV | ≤ 0.2 |
| MRML | ≤ 0.2 |
| PWPA | ≤ 0.2 |
| YLST | ≤ 0.2 |

| Variant | one-hybrid fitness for binding parS DNA |
| --- | --- |
| FCQR | ≤ 0.2 |
| DYHV | ≤ 0.2 |
| WWKS | ≤ 0.2 |
| GTSW | ≤ 0.2 |
| IYHY | ≤ 0.2 |
| KWHT | ≤ 0.2 |
| GGRC | ≤ 0.2 |
| AGYK | ≤ 0.2 |
| KEKL | ≤ 0.2 |
| FRQS | ≤ 0.2 |
| RYVH | 0.253 |
| LHGD | ≤ 0.2 |
| FALG | ≤ 0.2 |
| QLWY | ≤ 0.2 |
| TYAR | ≤ 0.2 |
| GYSY | ≤ 0.2 |
| YRPY | ≤ 0.2 |
| SSFL | ≤ 0.2 |
| KIAW | ≤ 0.2 |
| QGED | ≤ 0.2 |
| GRDV | ≤ 0.2 |
| SWMT | ≤ 0.2 |
| VAVT | ≤ 0.2 |
